Laboratory results: PubChem BioAssay AID485290 (National Center for Advancing Translational Sciences (NCATS), 2010)
The whole screen tested about 350,000 compounds, of which about 990 (0.28%) were called active. Calls come from the whole dose curve; as a rule, active = well fitted inhibition curve with a large enough effect; inconclusive = small, poorly fitted or top-dose-only effect; inactive = no such curve, though single readings can be large or run the other way. The inconclusive results got no clear call from the source. A potency beside an inconclusive call is a rough fit, not a confirmed value.

What follows are compounds tested against Tyrosyl-DNA phosphodiesterase 1 (Homo sapiens) (UniProt Q9NUW8) (assay: qHTS Assay for Inhibitors of Tyrosyl-DNA Phosphodiesterase (TDP1)). Conditions: recombinant TDP1, AlphaScreen DNA substrate cleavage; series mostly up to 130 µM.
Source text: NIH Molecular Libraries Probe Production Network [MLPCN]
NIH Chemical Genomics Center [NCGC]
Assay Provider: Yves Pommier and Christophe Marchand, National Cancer Institute
Assay Title: qHTS Assay for Inhibitors of Tyrosyl-DNA Phosphodiesterase (TDP1); note: nearly all actives have a fitted effect of over 40% in size
Human tyrosyl-DNA phosphodiesterase I (Tdp1) is a rational anticancer target because this enzyme is involved in the repair of DNA lesions created by the trapping of human DNA topoisomerase I (Top1) following treatment by anticancer agents such as camptothecins. Recombinant Tdp1 was expressed and purified from E. coli in the laboratory (Anthony et al, Nucleic Acids Research, 2007, Vol. 35, 4474-4484). A Tdp1 DNA substrate bearing a 5' biotin and a 3' phospho-tyrosine was obtained by custom synthesis. This oligonucleotidic DNA substrate was subsequently coupled to a fluorescein isothiocyanate (FITC) group via the free amino group present on the phospho-tyrosine. Tdp1 was screened against the NCGC small molecule library using the AlphaScreen (AS) detection method in which a streptavidin donor AS bead is bound at the 5' end and an anti-FITC AS acceptor bead is bound at the 3' end of the DNA oligonucleotidic substrate. […]
3 ul of Tdp1 enzyme is dispensed to 1536-well Kalypsys black solid bottom plates. […] The detection is then performed on a PerkinElmer Envision reader.
Potency is the fitted concentration of half-maximal effect; tags give direction and shape of the fitted curve.

UniProt Q9NUW8, sequence (Q9NUW8 whole entry, looked up): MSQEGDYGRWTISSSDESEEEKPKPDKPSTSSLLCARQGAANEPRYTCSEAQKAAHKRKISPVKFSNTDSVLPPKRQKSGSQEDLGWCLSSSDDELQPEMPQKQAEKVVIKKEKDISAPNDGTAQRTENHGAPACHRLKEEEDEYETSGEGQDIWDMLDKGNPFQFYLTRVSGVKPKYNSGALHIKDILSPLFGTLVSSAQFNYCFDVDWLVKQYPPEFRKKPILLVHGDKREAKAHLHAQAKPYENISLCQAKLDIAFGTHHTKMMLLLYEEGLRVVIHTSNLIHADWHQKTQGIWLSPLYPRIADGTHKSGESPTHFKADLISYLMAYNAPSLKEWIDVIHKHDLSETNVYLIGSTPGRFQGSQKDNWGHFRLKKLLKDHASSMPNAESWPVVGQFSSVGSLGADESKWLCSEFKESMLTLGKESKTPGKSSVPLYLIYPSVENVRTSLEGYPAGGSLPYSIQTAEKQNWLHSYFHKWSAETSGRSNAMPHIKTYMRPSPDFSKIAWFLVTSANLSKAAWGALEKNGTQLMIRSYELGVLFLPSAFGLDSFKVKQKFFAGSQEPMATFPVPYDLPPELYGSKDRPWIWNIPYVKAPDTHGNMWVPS

Row | Compound | Potency
1 | O=C(O)Cn1cc(/C=c2/sc3nc4ccccc4n3c2=O)c2ccccc21 | inconclusive: 89.1 µM [inhibitor, single point]
